Source: paper PMC5429823
Results are given in words; binding and its absence hold for the method and conditions named. In cells and extracts the contact can be indirect. Some entries that bind do so weakly or less than the wild type.

By UniProt entry, the sequences of proteins in these tests, tags left out. Where a name states a change or a piece, a line headed by the entry shows the natural chain unless it says otherwise.
UniProt Q498D1: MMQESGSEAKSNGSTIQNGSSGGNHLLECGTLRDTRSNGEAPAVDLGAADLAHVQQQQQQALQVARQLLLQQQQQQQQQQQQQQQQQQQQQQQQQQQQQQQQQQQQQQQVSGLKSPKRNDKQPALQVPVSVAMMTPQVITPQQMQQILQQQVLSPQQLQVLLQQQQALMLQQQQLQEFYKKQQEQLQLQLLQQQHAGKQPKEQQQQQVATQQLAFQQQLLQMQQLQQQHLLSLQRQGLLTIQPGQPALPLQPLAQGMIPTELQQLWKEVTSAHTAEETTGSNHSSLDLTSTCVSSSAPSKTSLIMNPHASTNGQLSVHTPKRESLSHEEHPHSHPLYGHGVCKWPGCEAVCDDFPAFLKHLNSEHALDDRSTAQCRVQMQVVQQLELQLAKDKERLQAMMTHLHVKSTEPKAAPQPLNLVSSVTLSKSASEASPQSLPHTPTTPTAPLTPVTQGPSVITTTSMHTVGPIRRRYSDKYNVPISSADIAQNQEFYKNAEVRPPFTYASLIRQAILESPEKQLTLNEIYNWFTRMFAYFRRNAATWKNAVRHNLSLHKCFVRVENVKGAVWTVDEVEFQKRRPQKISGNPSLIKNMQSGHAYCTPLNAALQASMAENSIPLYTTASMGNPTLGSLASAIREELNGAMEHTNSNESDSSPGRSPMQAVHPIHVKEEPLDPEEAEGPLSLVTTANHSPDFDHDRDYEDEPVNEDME
UniProt Q99P99: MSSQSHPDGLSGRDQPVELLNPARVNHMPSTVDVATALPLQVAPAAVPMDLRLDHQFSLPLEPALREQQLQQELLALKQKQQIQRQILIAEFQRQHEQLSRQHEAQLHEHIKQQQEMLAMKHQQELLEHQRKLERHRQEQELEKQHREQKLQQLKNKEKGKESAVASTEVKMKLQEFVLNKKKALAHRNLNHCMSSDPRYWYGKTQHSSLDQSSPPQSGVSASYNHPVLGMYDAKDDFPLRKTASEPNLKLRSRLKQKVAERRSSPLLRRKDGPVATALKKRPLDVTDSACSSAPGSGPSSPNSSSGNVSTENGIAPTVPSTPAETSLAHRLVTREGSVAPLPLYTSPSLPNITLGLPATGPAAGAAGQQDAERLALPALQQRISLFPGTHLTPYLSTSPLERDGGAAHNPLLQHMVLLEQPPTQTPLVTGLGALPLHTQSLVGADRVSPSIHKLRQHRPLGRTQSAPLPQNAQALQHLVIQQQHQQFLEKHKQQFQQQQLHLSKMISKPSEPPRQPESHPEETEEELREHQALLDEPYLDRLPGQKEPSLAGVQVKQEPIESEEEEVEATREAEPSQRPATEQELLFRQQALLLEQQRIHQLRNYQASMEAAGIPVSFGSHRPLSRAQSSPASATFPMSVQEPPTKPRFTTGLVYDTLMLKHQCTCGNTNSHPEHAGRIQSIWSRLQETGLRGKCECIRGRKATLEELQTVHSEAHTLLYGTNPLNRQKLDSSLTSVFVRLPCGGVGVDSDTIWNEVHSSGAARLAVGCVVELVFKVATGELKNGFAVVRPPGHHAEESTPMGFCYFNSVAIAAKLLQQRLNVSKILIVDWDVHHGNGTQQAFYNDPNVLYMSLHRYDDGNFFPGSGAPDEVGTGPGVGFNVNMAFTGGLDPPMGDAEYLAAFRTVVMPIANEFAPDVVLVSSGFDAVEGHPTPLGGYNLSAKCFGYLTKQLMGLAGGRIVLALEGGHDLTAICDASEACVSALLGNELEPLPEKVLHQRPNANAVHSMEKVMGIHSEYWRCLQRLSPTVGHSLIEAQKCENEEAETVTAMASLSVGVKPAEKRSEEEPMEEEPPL

How the values were obtained:
[1] = target: DeSUMOylated GST-FOXP1 (rat) (UniProt Q498D1); experiment: pull-down; SUMOylated or Senp1-deSUMOylated GST-FOXP1 immobilised on glutathione beads, incubated with cortical neuronal lysates for 1 hr, extensive washing, western blot; only the target purified
[2] = target: Ctbp1 (rat (endogenous in cultured cortical neurons)) (UniProt Q9Z2F5); experiment: co-IP; DIV7 cortical neuronal cultures lysed and immunoprecipitated with anti-Ctbp1 antibodies; immunoblot
[3] = target: Ctbp1 (rat (endogenous in cultured cortical neurons)) (UniProt Q9Z2F5); experiment: co-IP; Cultured cortical neurons with or without glutamate stimulation; PFA fixation step before co-immunoprecipitation of the Ctbp1 complex to prevent deSUMOylation; immunoblot for FOXP1, Ctbp1, LSD1, HDAC2
TAP-FOXP1-K670R (rat) = TAP-FOXP1-K670R (rat) (UniProt Q498D1); experiment: pull-down; HEK293T co-transfected with TAP-FOXP1 variants and GFP-FOXP1; lysis in 0.5% TX-100, 150 mM NaCl, 25 mM Tris pH 7.5; cleared lysates on streptavidin beads 1 hr; immunoblot
TAP-FOXP1-WT (rat) = TAP-FOXP1-WT (rat) (UniProt Q498D1); experiment: as above

For Ctbp1 (from UniProt Q9Z2F5 1-430), the binding [1] was “binds weakly”.
For “FOXP1 (endogenous, cortical neurons) (from UniProt Q498D1 1-711)”, the binding [2] was “binds” and the binding [3] was “binds”.
In the case of GFP-FOXP1 (from UniProt Q498D1 1-711), the binding (TAP-FOXP1-K670R (rat)) is reported as “binds” and the binding (TAP-FOXP1-WT (rat)) is reported as “binds”.
“class IIa histone de-acetylase HDAC4 (from UniProt Q99P99 1-1077)” was tested, and the binding [2] was “no binding”.
